This note sets out measurements from ChEMBL document CHEMBL5724801, “EUbOPEN Chemogenomics Library - Multiplex” (2024).

Molecules are shown by their SMILES. A number of entries come with more than one value. The list is limited to them. An entry can have further records. Values given together are repeated measurements (runs, samples, wells, individuals or studies).

Format in all cases: toxicity, cell-based
Data set [1] concerns Fibroblast. Briefly: Multiplex assay against human fibroblast. The essentials:
(§1)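 Tubulin, mitochondrial-mass and membrane-permeability phenotypes are per cents of healthy-nucleus cells. Cells were gated by CellPathfinder machine learning into Hoechst high-intensity objects or normal cells, normal cells into healthy, pyknosed or fragmented nuclei, and pyknosed cells into mitotic or apoptotic. Before that, live cells stained at seeding with Hoechst33342, BioTracker Green Microtubule Cytoskeleton Dye, MitoTracker Red and Annexin V Alexa Fluor 680 were imaged on a CQ1 microscope at 37°C and 5% CO2 after compound addition.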

Data set [2] concerns U2OS. Briefly: Multiplex assay against U2OS. As to conditions: human. Put shortly: as §1
Data set [3] relates to HEK-293T. The data set can be described thus: Multiplex assay against HEK293T. Conditions: human. The essentials: as §1
Setting [4] is: 12 h, 10 µM, compound concentration 10 uM.
Setting [5] is: 24 h, 10 µM, compound concentration 10 uM.
[6] abbreviates: 48 h, 10 µM, compound concentration 10 uM.
The mark [7] stands for this setting: 12 h, 1 µM, compound concentration 1 uM.
The mark [8] stands for this setting: 48 h, 1 µM, compound concentration 1 uM.
The mark [9] stands for this setting: 24 h, 1 µM, compound concentration 1 uM.

Take `Cc1cccc(NC(=O)CN2CCC(c3ccccn3)CC2)c1.Cl.Cl`: the “Population Fragmented Nuclei (%)” value in data set [1] (setting [4]) is 8% and 45%; in data set [1] (setting [5]), 11% and 45%; in data set [1] (setting [6]), 17% and 54%. Also, the “Population Pyknosed Nuclei (%)” value in data set [1] (setting [5]) was 6% and 20%. For the same molecule, the “Population Mitochondria Different-Phenotype (%)” value in data set [1] (setting [6]) was 5% and 16%. For the same molecule, the “Population Mitotic Cells (%)” value was 23% and 71% in data set [1] (setting [6]); 9% and 42% in data set [2] (setting [7]); 17% and 5% in data set [2] (setting [8]); 3% and 16% in data set [2] (setting [6]).

On to `C=CC(=O)N1CCC[C@@H](n2nc(C(=O)Nc3ccc(CC(=O)N(C)C)c(C)c3C)c3c(N)ncnc32)C1`, for which the “Population Apoptotic (%)” value in data set [1] (setting [7]) was 2.9% and 20%; in data set [1] (setting [5]), 5% and 15.38%. The “Population Mitochondria Different-Phenotype (%)” value in data set [1] (setting [8]) is 14.56% and 2.72%; in data set [2] (setting [4]) it was 0.27% and 10.83%; in data set [2] (setting [5]) it was 0.84% and 10.99%. Further, in data set [2] (setting [4]), the “Population Membrane Permeable-Phenotype (%)” value was 1.33% and 11.46%.

As to `CN1[C@@H](CC(=O)c2ccccc2)CCC[C@H]1C[C@H](O)c1ccccc1.Cl` [LOBELINE HYDROCHLORIDE], the “Population Apoptotic (%)” value was 3.92% and 17.24% in data set [1] (setting [9]); 6.06% and 33.33% in data set [1] (setting [5]); 5.32% and 24.76% in data set [3] (setting [6]). In addition, the “Population Healthy Nuclei (%)” value in data set [3] (setting [7]) is 58.64% and 14.18%. Further, the “Population Tubulin-Different-Phenotype (%)” value in data set [3] (setting [7]) is 4.02% and 30%; in data set [3] (setting [4]), 6.99% and 53.12%; in data set [3] (setting [8]), 1.08% and 34.41%; in data set [3] (setting [6]) it was 2.5% and 42.58%. Also, the “Total Cell Count” value in data set [3] (setting [9]) is 638 and 149; in data set [3] (setting [8]), 1307 and 175; in data set [3] (setting [6]), 880 and 267; in data set [2] (setting [5]) it was 592 and 197; in data set [2] (setting [6]) it was 1082 and 316. In addition, the “Population Pyknosed Nuclei (%)” value in data set [3] (setting [8]) was 12.62% and 45.14%; in data set [3] (setting [6]), 10.68% and 39.62%. Also, the “Population Mitochondria Different-Phenotype (%)” value in data set [2] (setting [4]) is 0% and 30.37%; in data set [2] (setting [5]), 0.19% and 19.63%.

Turning to `Cc1cc(C(C#N)c2ccc(Cl)cc2)c(Cl)cc1NC(=O)c1cc(I)cc(I)c1O` (centres undefined) [CLOSANTEL], the “Population Apoptotic (%)” value in data set [1] (setting [7]) was 2.5% and 12.9%; in data set [1] (setting [4]), 4.84% and 21.43%; in data set [3] (setting [6]), 3.97% and 20%. Moreover, the “Population Mitochondria Different-Phenotype (%)” value in data set [1] (setting [8]) was 13.37% and 1.62%; in data set [3] (setting [7]), 41.44% and 9.68%; in data set [3] (setting [4]), 35.92% and 9.52%. In addition, the “Population Healthy Nuclei (%)” value was 55.02% and 17.22% in data set [3] (setting [7]); 59.2% and 13.21% in data set [3] (setting [4]). For the same molecule, the “Population Tubulin-Different-Phenotype (%)” value is 3.87% and 35.48% in data set [3] (setting [7]); 4.85% and 19.05% in data set [3] (setting [4]); 1.49% and 35.5% in data set [3] (setting [8]); 0.59% and 33.15% in data set [3] (setting [6]). Besides, the “Population Pyknosed Nuclei (%)” value is 9.71% and 30.65% in data set [3] (setting [8]); 9.3% and 32.37% in data set [3] (setting [6]). For the same molecule, the “Total Cell Count” value in data set [3] (setting [8]) is 1390 and 250; in data set [3] (setting [6]), 1356 and 278; in data set [2] (setting [7]), 532 and 144; in data set [2] (setting [9]), 727 and 167; in data set [2] (setting [8]), 1332 and 299.

Take `CCn1c(-c2ccncc2)cc2c1CCNC2=O`: the “Population Apoptotic (%)” value in data set [1] (setting [4]) is 11.11% and 40%; in data set [1] (setting [5]), 7.14% and 42.31%. In addition, the “Population Fragmented Nuclei (%)” value was 15.56% and 2.6% in data set [1] (setting [4]); 16.92% and 5.41% in data set [1] (setting [9]); 13.97% and 1.55% in data set [1] (setting [5]). Further, the “Population Mitochondria Different-Phenotype (%)” value in data set [1] (setting [8]) was 15.38% and 1.67%. Also, the “Population Healthy Nuclei (%)” value in data set [3] (setting [7]) was 47.12% and 12.73%; in data set [3] (setting [4]), 27.97% and 4.86%; in data set [3] (setting [9]), 69.81% and 22.7%; in data set [3] (setting [5]) it was 36.4% and 6.43%; in data set [3] (setting [6]) it was 40.96% and 10.29%. In addition, the “Population Tubulin-Different-Phenotype (%)” value in data set [3] (setting [5]) is 28.57% and 0%; in data set [3] (setting [8]), 16.56% and 73.08%; in data set [3] (setting [6]) it was 7.84% and 35.71%. Also, the “Population Pyknosed Nuclei (%)” value in data set [3] (setting [8]) is 13.84% and 54.39%. The “Total Cell Count” value in data set [3] (setting [8]) was 386 and 115. In addition, in data set [2] (setting [6]), the “Population Membrane Permeable-Phenotype (%)” value was 8.82% and 26.67%.

Regarding `CC(C)C[C@H](CO)Nc1nc(S[C@@H](C)c2ccccc2)nc2nc(N)sc12` [AZD-8797], the “Population Membrane Permeable-Phenotype (%)” value in data set [1] (setting [7]) was 3% and 16%; in data set [1] (setting [9]) it was 1% and 17%. Moreover, in data set [1] (setting [4]), the “Population Mitochondria Different-Phenotype (%)” value is 6% and 27%. For the same molecule, the “Population Tubulin-Different-Phenotype (%)” value in data set [1] (setting [8]) was 11% and 54%; in data set [2] (setting [4]), 20% and 6%. In addition, the “Population Pyknosed Nuclei (%)” value in data set [2] (setting [5]) was 21% and 6%.

Take `Cc1cc(=O)n(C)c2cc(N3C(=O)CC[C@H](NS(=O)(=O)CC(C)C)[C@H]3c3ccc(Cl)cc3)ccc12`: the “Population Membrane Permeable-Phenotype (%)” value in data set [1] (setting [9]) was 1% and 13%. In data set [2] (setting [8]), the “Population Mitotic Cells (%)” value is 22% and 5%.

In the case of `Cc1ccccc1C(=O)Nc1ccc(C(=O)N2CCCC(N(C)C)c3ccccc32)cc1.Cl` (centres undefined), the “Population Mitotic Cells (%)” value in data set [1] (setting [6]) was 8% and 26%. The “Population Mitochondria Different-Phenotype (%)” value in data set [2] (setting [6]) is 8% and 30%.

For the molecule `COC(c1ccccc1)(c1ccccc1)[C@H](Oc1nc(C)cc(C)n1)C(=O)O` [AMBRISENTAN], the “Population Fragmented Nuclei (%)” value in data set [1] (setting [4]) is 8% and 39%; in data set [1] (setting [5]), 12% and 46%; in data set [1] (setting [6]), 14% and 50%. Besides, in data set [2] (setting [4]), the “Population Mitotic Cells (%)” value was 38% and 0%.

As for `Nc1nc(-c2ccco2)c2cnn(Cc3ccccc3F)c2n1`, the “Population Fragmented Nuclei (%)” value in data set [1] (setting [7]) was 10% and 31%; in data set [1] (setting [9]) it was 9% and 29%. Besides, in data set [1] (setting [5]), the “Population Membrane Permeable-Phenotype (%)” value is 1% and 15%. Further, the “Population Mitotic Cells (%)” value in data set [2] (setting [9]) was 3% and 15%. For the same molecule, the “Total Cell Count” value in data set [2] (setting [8]) was 462 and 141.

Regarding `C[C@H](NC(=O)c1c(C(F)F)nn(C)c1Oc1cccc(C(F)(F)F)c1)c1ccc(C(=O)O)cc1` [PALUPIPRANT], in data set [1] (setting [4]), the “Population Fragmented Nuclei (%)” value was 13% and 42%; the “Population Hoechst High Intensity Objects (%)” value is 2% and 14%; the “Population Membrane Permeable-Phenotype (%)” value is 2% and 13%. The “Population Tubulin-Different-Phenotype (%)” value in data set [1] (setting [9]) is 15% and 51%. Besides, in data set [1] (setting [5]), the “Population Membrane Permeable-Phenotype (%)” value was 2% and 13%. Also, in data set [2] (setting [7]), the “Population Mitotic Cells (%)” value was 39% and 8%.

Turning to `CCc1cc2cc(NS(=O)(=O)c3ccc(C#N)cc3)ccc2n(CC)c1=O`, the “Population Membrane Permeable-Phenotype (%)” value is 1% and 12% in data set [1] (setting [4]); 1% and 18% in data set [1] (setting [6]). Besides, in data set [2] (setting [5]), the “Population Mitotic Cells (%)” value is 4% and 20%.

On to `CC(C)(C)c1cc(NC(=O)Nc2ccc(-c3cn4c(n3)sc3cc(OCCN5CCOCC5)ccc34)cc2)no1` [QUIZARTINIB], for which, in data set [1] (setting [6]), the “Population Mitochondria Different-Phenotype (%)” value is 25% and 6%. Further, the “Population Fragmented Nuclei (%)” value in data set [2] (setting [5]) was 34% and 10%.

Regarding `Cc1cnc(-c2cc(N3CCN(C(=O)CCS(C)(=O)=O)CC3)ncc2Cl)c(C)c1`, the “Population Fragmented Nuclei (%)” value in data set [1] (setting [9]) is 10% and 35%. Moreover, in data set [2] (setting [4]), the “Population Membrane Permeable-Phenotype (%)” value is 4% and 20%; the “Population Tubulin-Different-Phenotype (%)” value is 1% and 15%. Also, the “Population Membrane Permeable-Phenotype (%)” value in data set [2] (setting [5]) was 4% and 18%. The “Population Mitotic Cells (%)” value in data set [2] (setting [8]) was 21% and 5%. In addition, the “Total Cell Count” value in data set [2] (setting [6]) was 485 and 141.

In the case of `O=C(NCC(=O)N1CC[C@H](N[C@H]2CC[C@@](O)(c3ccc(-c4ncccn4)cn3)CC2)C1)c1cccc(C(F)(F)F)c1` [PF-4136309], the “Population Membrane Permeable-Phenotype (%)” value was 1% and 13% in data set [1] (setting [7]); 1% and 16% in data set [1] (setting [9]). In addition, the “Population Mitotic Cells (%)” value is 20% and 6% in data set [2] (setting [7]); 30% and 7% in data set [2] (setting [6]).

On to `CC1(COc2ccc3c(c2)ncn3-c2ccc3cccc(N4CCC(N)CC4)c3n2)COC1` [CRENOLANIB], for which the “Population Apoptotic (%)” value in data set [1] (setting [7]) was 61% and 18%; in data set [1] (setting [8]), 75% and 20%. In addition, the “Population Mitotic Cells (%)” value is 7% and 50% in data set [1] (setting [9]); 25% and 80% in data set [1] (setting [8]); 12% and 37% in data set [2] (setting [8]).

Take `COc1cc(OC2CCN(C(C)=O)CC2)ccc1C(=O)N1CCC(N2C(=O)OCc3ccccc32)CC1`: the “Population Fragmented Nuclei (%)” value in data set [1] (setting [4]) is 10% and 32%; in data set [1] (setting [6]), 10% and 36%. Moreover, the “Population Pyknosed Nuclei (%)” value in data set [2] (setting [6]) is 14% and 3%.

As to `Cc1cc(NC(=O)NCCN2CCC(O)(Cc3ccccc3)CC2)c2ccccc2n1` [PALOSURAN], the “Population Mitochondria Different-Phenotype (%)” value was 1% and 13% in data set [1] (setting [7]); 2% and 14% in data set [1] (setting [8]). Moreover, the “Population Membrane Permeable-Phenotype (%)” value in data set [1] (setting [9]) was 1% and 14%. The “Population Tubulin-Different-Phenotype (%)” value in data set [1] (setting [9]) was 17% and 62%; in data set [1] (setting [8]) it was 15% and 61%. Moreover, the “Population Mitotic Cells (%)” value is 5% and 33% in data set [2] (setting [9]); 8% and 25% in data set [2] (setting [5]); 3% and 16% in data set [2] (setting [8]).
